Results published in the supplement of paper PMC4967469.

Key:
Assay in all cases: Viability of human cancer cell lines after 72 h of drug (GDSC screen)
Docetaxel = compound: CC(=O)O[C@@]12CO[C@@H]1C[C@H](O)[C@@]1(C)C(=O)[C@H](O)C3=C(C)[C@@H](OC(=O)[C@H](O)[C@@H](NC(=O)OC(C)(C)C)c4ccccc4)C[C@@](O)([C@@H](OC(=O)c4ccccc4)[C@H]21)C3(C)C [Docetaxel]; details: top dose 0.0125 µM
Protocol: (§1)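 Human cancer cell lines in 384-well plates, medium with 10% serum, drug for 72 h over a 256-fold dose range (nine 2-fold or five 4-fold steps up to the top dose). Adherent lines were fixed and stained with the nucleic acid dye Syto60, suspension lines read with resazurin; signal relative to control wells, capped at 0 and 100%. One two-parameter sigmoid per drug and line, fitted in a mixed model over all curves with the slope shared within a line.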

AMG-706 = compound: CC1(C)CNc2cc(NC(=O)c3cccnc3NCc3ccncc3)ccc21 [AMG-706]; details: top dose 2 µM; top dose inferred
Protocol: as §1

JNK Inhibitor VIII = compound: CCOc1nc(NC(=O)Cc2cc(OC)ccc2OC)cc(N)c1C#N [JNK Inhibitor VIII]; details: top dose 10 µM; top dose inferred
Protocol: as §1

NSC-207895 = compound: CN1CCN(c2ccc([N+](=O)[O-])c3no[n+]([O-])c23)CC1 [NSC-207895]; details: top dose 20 µM; top dose inferred
Protocol: as §1

FTI-277 = compound: COC(=O)[C@H](CCSC)NC(=O)c1ccc(NC[C@@H](N)CS)cc1-c1ccccc1 [FTI-277]; details: top dose 1.024 µM; top dose inferred
Protocol: as §1

YM155 = compound: COCC[n+]1c2c(n(Cc3cnccn3)c1C)C(=O)c1ccccc1C2=O [YM155]; details: top dose 5.12 µM
Protocol: as §1

OSI-906 = compound: C[C@]1(O)C[C@@H](c2nc(-c3ccc4ccc(-c5ccccc5)nc4c3)c3c(N)nccn32)C1 [OSI-906]; details: top dose 2.56 µM; top dose inferred
Protocol: as §1

SB-715992 = compound: Cc1ccc(C(=O)N(CCCN)[C@@H](c2nc3cc(Cl)ccc3c(=O)n2Cc2ccccc2)C(C)C)cc1 [SB-715992]; details: top dose 0.128 µM; top dose inferred
Protocol: as §1

JQ1 = compound: Cc1sc2c(c1C)C(c1ccc(Cl)cc1)=N[C@@H](CC(=O)OC(C)(C)C)c1nnc(C)n1-2 [JQ1]
Protocol: as §1

Belinostat = compound: O=C(/C=C/c1cccc(S(=O)(=O)Nc2ccccc2)c1)NO [Belinostat]; details: top dose 20 µM; top dose inferred
Protocol: as §1

JNJ-26854165 = compound: c1ccc2c(CCNc3ccc(Nc4ccncc4)cc3)c[nH]c2c1 [JNJ-26854165]; details: top dose 10 µM
Protocol: as §1

[1] = top dose 1 µM, screen: GDSC drug entry 1218, top dose inferred
[2] = top dose 2.56 µM, screen: GDSC drug entry 163

Row | Cell Line | AUC (Docetaxel) | IC50 (Docetaxel) | AUC (AMG-706) | IC50 (AMG-706) | AUC (JNK Inhibitor VIII) | IC50 (JNK Inhibitor VIII) | AUC (NSC-207895) | IC50 (NSC-207895) | AUC (FTI-277) | IC50 (FTI-277) | AUC (YM155) | IC50 (YM155) | AUC (OSI-906) | IC50 (OSI-906) | AUC (SB-715992) | IC50 (SB-715992) | AUC (JQ1; [1]) | IC50 (JQ1; [1]) | AUC (JQ1; [2]) | IC50 (JQ1; [2]) | AUC (Belinostat) | IC50 (Belinostat) | AUC (JNJ-26854165) | IC50 (JNJ-26854165)
1 | SW948 (large intestine, adherent) | 0.949 | > 12.5 nM | 0.982 | > 2000 nM | 0.981 | > 10000 nM | 0.972 | > 20000 nM | 0.982 | > 1020 nM | 0.878 | > 5120 nM | 0.97 | > 2560 nM | 0.947 | > 128 nM | 0.979 | > 1000 nM | 0.81 | 2220 nM | 0.46 | 925 nM | 0.965 | > 10000 nM
2 | NCI-H596 (lung adenocarcinoma, adherent) | 0.817 | 9.74 nM | 0.982 | > 2000 nM | 0.975 | > 10000 nM | 0.979 | > 20000 nM | 0.98 | > 1020 nM | 0.194 | 28.7 nM | 0.982 | > 2560 nM | 0.889 | > 128 nM | 0.96 | > 1000 nM | 0.638 | 434 nM | 0.467 | 992 nM | 0.904 | > 10000 nM
3 | PE/CA-PJ15 (head and neck, adherent) | 0.803 | 6.78 nM | 0.947 | > 2000 nM | 0.961 | > 10000 nM | 0.983 | > 20000 nM | 0.974 | > 1020 nM | 0.059 | < 20 nM | 0.982 | > 2560 nM | 0.957 | > 128 nM | 0.959 | > 1000 nM | 0.893 | > 2560 nM | 0.556 | 1800 nM | 0.836 | 7390 nM
4 | CAL-29 (bladder, adherent) | 0.543 | 1.03 nM | 0.973 | > 2000 nM | 0.961 | > 10000 nM | 0.934 | > 20000 nM | 0.984 | > 1020 nM | 0.098 | < 20 nM | 0.984 | > 2560 nM | 0.959 | > 128 nM | 0.958 | > 1000 nM | 0.636 | 393 nM | 0.529 | 1500 nM | 0.829 | 6870 nM
5 | CAL-72 (osteosarcoma, adherent) | 0.255 | 0.134 nM | 0.975 | > 2000 nM | 0.981 | > 10000 nM | 0.984 | > 20000 nM | 0.983 | > 1020 nM | 0.283 | 69 nM | 0.968 | > 2560 nM | 0.984 | > 128 nM | 0.975 | > 1000 nM | 0.534 | 201 nM | 0.832 | 16100 nM | 0.903 | > 10000 nM
6 | CHP-212 (neuroblastoma, adherent) | 0.84 | 7.66 nM | 0.983 | > 2000 nM | 0.974 | > 10000 nM | 0.975 | > 20000 nM | 0.98 | > 1020 nM | 0.8 | 2250 nM | 0.928 | > 2560 nM | 0.927 | > 128 nM | 0.987 | > 1000 nM | 0.446 | 115 nM | 0.13 | 96.2 nM | 0.834 | 5810 nM
7 | M059J (glioma, adherent) | 0.676 | 2.54 nM | 0.979 | > 2000 nM | 0.958 | > 10000 nM | 0.977 | > 20000 nM | 0.935 | > 1020 nM | 0.032 | < 20 nM | 0.985 | > 2560 nM | 0.774 | 54.8 nM | 0.983 | > 1000 nM | 0.574 | 259 nM | 0.449 | 896 nM | 0.831 | 7110 nM
8 | PCI-6A (head and neck, adherent) | 0.296 | 0.211 nM | 0.971 | > 2000 nM | 0.972 | > 10000 nM | 0.988 | > 20000 nM | 0.981 | > 1020 nM | 0.195 | 40.5 nM | 0.988 | > 2560 nM | 0.656 | 21.4 nM | 0.986 | > 1000 nM | 0.547 | 214 nM | 0.206 | 173 nM | 0.84 | 6700 nM
9 | NCI-H1435 (lung adenocarcinoma, semi-adherent) | 0.977 | > 12.5 nM | 0.993 | > 2000 nM | 0.992 | > 10000 nM | 0.989 | > 20000 nM | 0.987 | > 1020 nM | 0.667 | 880 nM | 0.99 | > 2560 nM | 0.977 | > 128 nM | 0.989 | > 1000 nM | 0.915 | > 2560 nM | 0.993 | > 20000 nM | 0.993 | > 10000 nM
10 | 451Lu (melanoma, adherent) | 0.734 | 3.51 nM | 0.936 | > 2000 nM | 0.983 | > 10000 nM | 0.836 | 12500 nM | 0.986 | > 1020 nM | 0.133 | 23.9 nM | 0.989 | > 2560 nM | 0.984 | > 128 nM | 0.988 | > 1000 nM | 0.44 | 110 nM | 0.653 | 3250 nM | 0.842 | 6620 nM
11 | SKN-3 (head and neck, adherent) | 0.68 | 2.75 nM | 0.979 | > 2000 nM | 0.915 | > 10000 nM | 0.669 | 4040 nM | 0.973 | > 1020 nM | 0.037 | < 20 nM | 0.961 | > 2560 nM | 0.959 | > 128 nM | 0.981 | > 1000 nM | 0.911 | > 2560 nM | 0.51 | 1340 nM | 0.85 | 9750 nM

By IC50 is meant the dose at which the fit gives 50% viability; fits outside the tested doses are given as limits. AUC, from the same fit, is the share of area under the viability curve across the 256-fold dose range; it is 1 without any effect and falls as sensitivity rises. For part of these data: A top dose marked as inferred was derived from the fitted curves, not read from the paper. For part of these data: Where an entry number is given, a second screen of the drug exists; the two often differ.
